# Source: paper PMC4336329 (PLoS ONE, 2015)
# Among all 310,000 compounds or so, about 2,200 (0.71%) showed an effect of 50% or more. The effect is printed as a negative number. The list shows a part of the results.
# Target: human ether-à-go-go-related gene (hERG) potassium channel (human, UniProt Q12809)
# Experiment: primary screen, population patch clamp on CHO cells stably expressing hERG
# Sequence of human ether-à-go-go-related gene (hERG) potassium channel (Q12809 whole entry, looked up): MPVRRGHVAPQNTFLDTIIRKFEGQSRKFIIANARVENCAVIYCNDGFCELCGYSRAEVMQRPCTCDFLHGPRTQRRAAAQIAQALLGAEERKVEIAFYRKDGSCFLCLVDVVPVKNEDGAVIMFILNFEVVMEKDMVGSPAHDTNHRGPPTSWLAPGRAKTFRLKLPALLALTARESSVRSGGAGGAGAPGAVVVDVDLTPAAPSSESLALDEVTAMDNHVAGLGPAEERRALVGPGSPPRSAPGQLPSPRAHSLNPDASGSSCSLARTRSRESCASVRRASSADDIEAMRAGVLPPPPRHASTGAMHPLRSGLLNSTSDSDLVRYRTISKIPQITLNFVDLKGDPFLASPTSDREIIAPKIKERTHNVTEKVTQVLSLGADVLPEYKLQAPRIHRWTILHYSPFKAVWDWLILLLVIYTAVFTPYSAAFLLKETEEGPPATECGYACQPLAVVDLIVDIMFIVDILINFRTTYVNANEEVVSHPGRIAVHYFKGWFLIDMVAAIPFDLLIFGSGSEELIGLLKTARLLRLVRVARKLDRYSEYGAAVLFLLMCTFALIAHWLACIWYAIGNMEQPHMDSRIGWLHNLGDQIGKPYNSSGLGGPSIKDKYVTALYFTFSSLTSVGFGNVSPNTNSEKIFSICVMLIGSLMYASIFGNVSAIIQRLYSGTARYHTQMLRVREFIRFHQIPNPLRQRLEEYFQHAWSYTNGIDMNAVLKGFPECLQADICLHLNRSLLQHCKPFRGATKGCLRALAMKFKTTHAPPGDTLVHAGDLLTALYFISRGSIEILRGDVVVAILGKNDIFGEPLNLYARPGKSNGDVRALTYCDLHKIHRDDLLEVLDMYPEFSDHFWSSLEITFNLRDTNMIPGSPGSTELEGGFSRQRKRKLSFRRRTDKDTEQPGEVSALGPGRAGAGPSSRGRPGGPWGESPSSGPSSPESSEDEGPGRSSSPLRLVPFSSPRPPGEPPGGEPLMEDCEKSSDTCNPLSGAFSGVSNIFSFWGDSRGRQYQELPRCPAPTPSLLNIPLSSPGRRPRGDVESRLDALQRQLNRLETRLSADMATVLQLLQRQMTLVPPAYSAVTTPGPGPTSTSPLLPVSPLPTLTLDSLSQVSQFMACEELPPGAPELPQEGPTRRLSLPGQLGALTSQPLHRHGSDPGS
row,Compound,"hERG current change (%, negative = inhibition) at 1uM [%]"
1,COc1ccc(OC)c(S(=O)(=O)Nc2ccc3c(c2)n(C)c(=O)n3C)c1,6.15
2,O=S(=O)(c1ccc(Cl)cc1)c1nc(-c2ccccc2F)oc1NCCN1CCOCC1,-0.205
3,CCOC(=O)c1cc2c(=O)n3ccccc3nc2n(C(C)C)c1=NC(=O)c1c(-c2ccccc2Cl)noc1C,19.4
4,C/C(=C\C#N)n1nc(C)cc1N,14.4
5,CC(C)(C)NC(=O)CSc1nc2cccnc2n1C1CCCCC1,8.34
6,CC/C(O)=C(\C#N)c1nnc2n1CCCCC2,11.6
7,CCCOc1ccc(C(=O)NNC(=O)c2cccc(S(=O)(=O)N3CCN(C(C)=O)CC3)c2)cc1OC,-5.72
8,O=C1C2C3C=CC(C3)C2C(=O)N1/N=C/c1cn(Cc2ccccc2)c2ccccc12 (stereo not shown),3.4
9,Nc1nnc(SCC(=O)c2cccc([N+](=O)[O-])c2)s1,1.05
10,Cc1ccc(CNC(=O)CCc2c(C)nc3ncnn3c2C)cc1,5.5
11,Cc1ccc(S(=O)(=O)N2CCN(S(=O)(=O)N3CCC(C)CC3)CC2)cc1C,12.3
12,CSCCCNC(=S)N1CCN(S(=O)(=O)c2cccc(C(F)(F)F)c2)CC1,8.66
13,O=C(CCNC(=O)c1ccc(Br)cc1)Nc1cccc(S(=O)(=O)N2CCCCC2)c1,4.54
14,COC(=O)C1CCN(C(=O)COc2ccc(N(C)S(=O)(=O)c3ccc(C)cc3)cc2)CC1,-2.93
15,CC(C)c1nnc(NC(=O)CCS(=O)(=O)Cc2ccccc2)s1,10.7
16,O=C(N/N=C/c1ccccn1)C1CC1,1.69
17,COc1cc(SC)ccc1C(=O)NCCCOC(C)C,8.43
18,CCOc1ccc(NC(=O)CC2C(=O)NCCN2C(=O)Nc2ccccc2)cc1 (stereo not shown),3.83
19,Cc1cc(NC(=O)CSc2nnc(-c3ccncc3)n2N)ccc1Br,3.1
20,Cc1ccc(-c2cc(C(=O)Nc3nccs3)c3ccccc3n2)c(C)c1,13.5
21,Cc1ccc(C)c(S(=O)(=O)N2CCCOC2CNC(=O)C(=O)NCc2ccncc2)c1 (stereo not shown),9.48
22,CCOC(=O)N1CCC(Nc2c(N3CCN(c4cc(Cl)ccc4C)CC3)c(=O)c2=O)CC1,-25.6
23,CC(C)C[C@H](NC(=O)C1CC(=O)N(c2ccc3c(c2)OCO3)C1)C(=O)NC1CCCC1 (stereo partly shown),8.83
24,CC(/C=C/c1ccccc1)=N\NC(=O)c1ccncc1,-1.6
25,O=C(COC(=O)c1ccc([N+](=O)[O-])s1)Nc1ccc(F)cc1,2.01
26,CCN(CC)CCNC(=O)c1ccc(NC(=O)c2ccc(COc3ccccc3)cc2)cc1,16.8
27,NC(=O)c1ccccc1NS(=O)(=O)c1ccc2c(c1)OCCO2,9.03
28,COc1ccc(CCCc2n[nH]c(=S)o2)c(C)c1,13.4

row,Compound,"hERG current change (%, negative = inhibition) at 1uM [%]"
1,CC(=O)C1C(=O)c2c(cccc2[N+](=O)[O-])C1=Nc1ccc(S(N)(=O)=O)cc1 (stereo not shown),10.7
2,Cl.c1cncc(CNC2CCCCC2)c1,17.2
3,CN1CCN(CCC(=O)Nc2ccc(Br)cc2)CC1,2.21
4,CC(C)N1CCc2c(sc(NC(=O)c3ccc(S(=O)(=O)N4CCCCC4C)cc3)c2C(N)=O)C1 (stereo not shown),-3.28
5,CCOC(=O)c1cnc(SCC(=O)OC)nc1N,20.2
6,CN(C)c1ccc(/C=C(/NC(=O)c2ccccc2)C(=O)N2CCCC2)cc1,11.4
7,O=C(O)c1cccc(S(=O)(=O)Nc2ccccc2C(=O)NCCc2ccccc2)c1,9.88
8,COc1ccc(C(=O)NC(=S)Nc2ccc(S(=O)(=O)Nc3cc(OC)ncn3)cc2)cc1,14.2
9,O=C(Nc1ccc(OCc2ccccc2)cc1)c1cccnc1,13.6
10,Cc1c(N=c2c(=O)c3ccccc3c2=O)c(=O)n(-c2ccccc2)n1C,0.192
11,COc1ccc(S(=O)(=O)NCCCCOc2ccc(Cl)cc2)cc1,14.1
12,CC(=O)Nc1ccc(S(=O)(=O)N2c3ccccc3C(C)=CC2(C)C)cc1,0.665
13,O=C(N/C=C\n1cnc2cc(C(F)(F)F)ccc21)c1ccc([N+](=O)[O-])cc1,4.98
14,CCN(CC)CCN(C(=O)CN1C(=O)c2ccccc2C1=O)c1nc2cc3c(cc2s1)OCO3.Cl,-7.4
15,CCCc1[nH]nc2c1C(c1ccccc1OC)C(C#N)=C(N)O2 (stereo not shown),11.9
16,Cc1ccc(NC(=O)c2c([N+](=O)[O-])cnn2C)cc1C,11
17,N#Cc1cccc(N=Cc2c(O)ccc3ccccc23)c1,12.6
18,Cc1cccc(NC(=O)CN2CCc3cc4c(cc3C2)OCCCO4)c1,25
19,CCC1CCC(C(=O)NC(CCSC)C(=O)NCCc2ccc(S(N)(=O)=O)cc2)CC1 (stereo not shown),9.17
20,CC1C[N+](=C2C=C(N3CCOCC3)CC(C)(C)C2)CC(C)O1.[I-] (stereo not shown),12.3
21,Cc1ccc(S(=O)(=O)N2CCCC2CNC(=O)c2ccc3c(c2)OCO3)cc1 (stereo not shown),11.4
22,CCOC(=O)Oc1ccc2c(=O)c(Oc3cccc(C)c3)coc2c1,9.94
23,CCOC(=O)N1CCN(C(=O)CSc2ccc3nnc(-c4cccnc4)n3n2)CC1,8.51
24,O=C(c1ccco1)N1CCN(S(=O)(=O)c2ccc(S(=O)(=O)NC3CC3)cc2)CC1,6.25
25,Cc1ccc2c(c1)C(=O)CCN2,-3.47
26,COc1ccc(CNC(=O)COC(=O)/C=C/c2ccc(S(=O)(=O)N3CCOCC3)cc2)cc1,12.3
27,O=C(CCNC(=O)c1ccc([N+](=O)[O-])cc1)NCCCN1CCCC1=O,14.7
